Experimental data taken from the supplement of paper PMC11417369.
± gives the standard deviation of the averaged measurements. This is one part of the list.

System: PfAP2-LT AP2 domain (GST-tagged)
Experiment: gcPBM binding intensity (ln(normalized median fluorescence intensity)); higher = stronger DNA binding
Procedure, shortened: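 Binding intensity is defined as the maximum Masliner-normalised natural-log median intensity across replicate spots for either probe orientation. It was measured on an Agilent 4 × 180k array of primer-extended double-stranded 36-bp intergenic genomic probes and negative controls, to which GST-tagged P. falciparum DNA-binding domains made in E. coli were applied for 1 h in 1× PBS with 1% milk, 0.2 mg/ml BSA, 0.5% salmon testes DNA and 0.03% Triton X-100. Detection was by Alexa488 anti-GST antibody and scanning at 488 nm.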

| Sequence | gcPBM binding intensity (ln) |
| --- | --- |
| ATTTTTTTTTTTTCCTTACACACATATTTCATTTTA [CACACA_site748] | 9.29 ± 0.61 |
| TACATTTTTATTTTTACACACATATATATATATATA [CACACA_site1021] | 9.24 ± 0.13 |
| CTATTAAAAAAATTATGTACACAACGTCTCTATATA [XGTACX_site4813] | 8.71 ± 0.43 |
| TATTATTTTATGAGACATAAAAAAAAAAAAAAAAAA [CACACA_negctrl_site1534] | 8.04 ± 0.46 |
| TATAATATATTTATATGTACTTATTTATTTATATAT [XGTACX_site6519] | 8.66 ± 0.47 |
| GAGTTTATTCTTTTTATACACACCTTATTTGATTAA [CACACA_site735] | 8.92 ± 0.45 |
| AAGTATTATTATAAGACACACATGTATATAAGTATA [CACACA_site1479] | 9.14 ± 0.53 |
| TTAAGTATTTTACGTACACACTTATAAATGTACAGG [CACACA_site6012] | 8.73 ± 0.4 |
| TAATCCATAAGAAGCACACACATATAAATATATTTT [CACACA_site6774] | 9.19 ± 0.37 |
| TTTAAATATTTTAACACACTCATATTTAGGTTACAA [CACACA_site5685] | 8.62 ± 0.52 |
| TTTACATATTTATATACACACTTTTGCGTGTCTGGT [CACACA_site4750] | 9.33 ± 0.68 |
| TCCATATATATTATGTGTACATATTATATATATAAA [XGTACX_site7525] | 8.53 ± 0.34 |
| AGTAAAAGAAAGCACACACACATGTATATATGTATG [CACACA_site3858] | 9.75 ± 0.41 |
| CAATATAAAAAACACACGCACACAAAAAAAAAAAAA [CACACA_site3521] | 9.46 ± 0.42 |
| GTAATATTATATAGTTGTACTTTTTTTTTATTATAT [XGTACX_site483] | 8.79 ± 0.48 |
| ATATATAAAATATATTGTACATTAACATATATATTT [XGTACX_site2055] | 8.57 ± 0.39 |
| AAACTTGACGGACACACACACACATATATAAAAAAA [CACACA_site4577] | 9.94 ± 0.38 |
| ATATATAAATAAATAGTGCATTTTAATATTTAACGT | 8.85 ± 0.41 |
| TGTTATATTTGTGCGTGTACACATTTGAAAAAATAT [XGTACX_site3796] | 8.74 ± 0.4 |
| TTTCTTTATTTTTTTTTTTTTTTTTTTCCTTTTTTT [TGCATGCA_negctrl_site231] | 8.4 ± 0.56 |
| TGTGCACGCATATACACACACAAATACAATGATAAA [CACACA_site6656] | 9.44 ± 0.36 |
| AACGGGGCCAAGAAATATAAATAATCAAAACAAAAA [XGTACX_negctrl_site320] | 8.71 ± 0.76 |

| Sequence | gcPBM binding intensity (ln) |
| --- | --- |
| AATATCATCAAACGCACACATACATAAATATATTAT [CACACA_site2174] | 9.44 ± 0.44 |
| GTTCTTTCAAGTTATACACACCAAAAAAAAAAAAAA [CACACA_site7435] | 8.64 ± 0.35 |
| TAGTACACACAAAATACATGCGGGGTTTAATATTTA [TGCATGCA_site576] | 9.12 ± 0.47 |
| AATTCTTTCATATATTGTACGTATTCCCATAAAATA [XGTACX_site5923] | 8.71 ± 0.42 |
| AGTGTGTGTGCGTATAGTACATATACATATATACAC [XGTACX_site6882] | 9.97 ± 0.47 |
| AAATGAATAAAATTTATTTATAAAAGAAAAATCACA [GTGCAC_negctrl_site225] | 8.35 ± 0.6 |
| ATAATACAAAATACATGTACAAATATTTTTCATATT [XGTACX_site1721] | 8.86 ± 0.46 |
| TATAAATAATTATATTGTACTCTTTATATTTTTCTT [XGTACX_site5335] | 8.61 ± 0.7 |
| AGAAGTTTATCTTTTAGTACGCATAAAAAAAAAAAA [XGTACX_site2359] | 8.43 ± 0.46 |
| GGGAGGATATTTCACAGTACCCAGGAAATCTGCGGA [XGTACX_site2555] | 8.56 ± 0.47 |
| TAAATATATATATGGTGTACCATTTTGGGTTAATAT [XGTACX_site2706] | 8.69 ± 0.44 |
| TTAATATTTTGATGTGTACACATTAAAATAGTTTTA [CACACA_site5712] | 8.46 ± 0.48 |
| TATATTATTTTTTATTGTACTTAAAAATATTATTTG [XGTACX_site1443] | 8.61 ± 0.34 |
| TATAGTAATATTTGAAGTACAAAATTAAAATAAATA [XGTACX_site7634] | 8.88 ± 0.49 |
| TTAAATAGCTGTAATTGTACAAATAAATACATAAAT [XGTACX_site3097] | 8.82 ± 0.38 |
| TTATATAAGGTCTATATATAAATATTAATGATAAGG [TGCATGCA_negctrl_site354] | 8.52 ± 0.46 |
| TTTTTTTTGTTATGAACATGCAAATTAAAATATAAT [TGCATGCA_site954] | 8.21 ± 0.4 |
| CAACAATTTCGTCATACACACATTCAGAATATATAT [CACACA_site2370] | 8.98 ± 0.34 |
| TACTTTTCTTAAAGATGTACGTTTTAAAAATAAAAT [XGTACX_site14] | 8.21 ± 0.4 |
| TAAATACATAAAAATTGTACACATTGTTTTCTCTTT [XGTACX_site6435] | 8.72 ± 0.55 |
| TCCTTATTTTGCAGGAGTACCATTTTTTAAAAATAC [XGTACX_site5968] | 8.49 ± 0.4 |
| AATAACAATTATAAAAGTACAGATTTTTATTTCTAA [XGTACX_site5746] | 8.47 ± 0.43 |

| Sequence | gcPBM binding intensity (ln) |
| --- | --- |
| ACAATTACTTATTTTAATTTTTTTAATCTATTGATT [CACACA_negctrl_site967] | 8.61 ± 0.45 |
| ATATTTTTTTTTCTTTCGCACACGTGAAAGAATTTC [CACACA_site8636] | 8.99 ± 0.57 |
| TTTTATGCTCAATTATTAAGAAATACTTTTTCTTCC [XGTACX_negctrl_site208] | 8.45 ± 0.68 |
| AAAATAAAAATTAACTGTACATACATTATTCAAATT [XGTACX_site6106] | 8.59 ± 0.45 |
| TACAAACAAACACATAGCAATATATGTTATCAAAAA [XGTACX_negctrl_site1] | 8.95 ± 0.47 |
| AAGGAAATAATTAAATGTACAAAAAAAAAAAAAATT [XGTACX_site562] | 8.79 ± 0.59 |
| AAGATTAAACATTGCACACAGAAATATATTTTCTAT [CACACA_site2374] | 9.02 ± 0.33 |
| ATTAATAAAAGATAAAGTACAAATCGGAAAATGAAT [XGTACX_site7846] | 9.03 ± 0.44 |
| TTTCAATGTGACACGTGTCCGTAAAATTACATAATT [XGTACX_site7073] | 8.8 ± 0.28 |
| TTGTTCATCTTTTTTTTTTTTTTTTTTTTTTAAATC [CACACA_negctrl_site191] | 8.22 ± 0.47 |
| ATTTATAATTTTTGAGCACACACAAGCATATATATA [CACACA_site8531] | 9.1 ± 0.36 |
| TGTTATTATTAAGACACACACACAAAAAAAAAAAAA [CACACA_site1481] | 9.4 ± 0.42 |
| TGAACTCATAGGAAAACACACATATGTGCAATATAT [CACACA_site6231] | 9.12 ± 0.36 |
| ACAATGATAGTGTAAAGTACATATATATAAAAAAAT [XGTACX_site5928] | 9.26 ± 0.59 |
| TTTATAATATGTTATACATGCAGGTACCTTTTTGTA [TGCATGCA_site746] | 8.9 ± 0.46 |
| GAGAAATTTATACATACACACATATAAATATTATAG [CACACA_site7819] | 8.98 ± 0.42 |
| CTTTGCATTACGAACATACACACAGAATAACTGAAA [CACACA_site3024] | 8.94 ± 0.34 |
| ATATATTTTGGGGACTTTTTAAAAAAGAAGTATTAA [TGCATGCA_negctrl_site337] | 8.32 ± 0.49 |
| TTTTTGTTAATAAGTATGCACTATCTCATTTTTGTA | 8.79 ± 0.49 |
| TAGAAAAAAATAGATGCATGCAATGAATGAATAATA [TGCATGCA_site14] | 9.36 ± 0.55 |
| TTTCTATTACGAACGTGTACATACATTATTCTTAAA [XGTACX_site5816] | 8.68 ± 0.47 |
| GAGCATTACACATATACACACATATAAATAAACATA [CACACA_site7315] | 9.32 ± 0.42 |

| Sequence | gcPBM binding intensity (ln) |
| --- | --- |
| CTATACTATGAAAAGTGTACGAATAGCTAGCTATTT [XGTACX_site5927] | 8.88 ± 0.4 |
| TAGTAGTATTCATCCAGTACATATAAATGTATAATA [XGTACX_site7552] | 8.86 ± 0.59 |
| ATCTATATTATTTCTACACACATATCTATAATATGT [CACACA_site7561] | 9.46 ± 0.45 |
| ATATCAAATAGACAAACACACAAAGGAAGAGTGAAA [CACACA_site3921] | 9.21 ± 0.49 |
| TTCTTTTTTTTTTTTTTTTTTTTATAGTACAAAAAA [TGCATGCA_negctrl_site450] | 8.2 ± 0.56 |
| TTTTTTTTTTTGTGTGCATGTGCTAGGAAAGGTAGG [TGCATGCA_site330] | 8.77 ± 0.47 |
| AATAATATATAAGAAAGTACAAAAAAATAAAATAAA [XGTACX_site3302] | 8.82 ± 0.58 |
| TTTTAATGAAATATCAAAAAAATTTATGATTTCAAA [GTGCAC_negctrl_site662] | 7.87 ± 0.47 |
| AAAAAGAAAAAACTTACACACATATATACACCCATG [CACACA_site8079] | 9.41 ± 0.18 |
| AATAGAATAATCCTTACACACACACCCACACGAATA [CACACA_site8053] | 9.87 ± 0.16 |
| AACCAATATGCGTATACACACATAAATATAAATATA [CACACA_site3780] | 9.29 ± 0.4 |
| TGTATAAAAAGAAAAAATCGTATGTGTTATCAAAAA [GTGCAC_negctrl_site490] | 8.46 ± 0.47 |
| GTATTAATTTTAAGGTGTACGCAAAAAATTTAATTT [XGTACX_site718] | 8.63 ± 0.4 |
| AACCAGTTGATGTGTACACATATAGTAATAATTTTA [CACACA_site5564] | 9.16 ± 0.52 |
| TTTTTTTTTTTTTGAACACACATTATTAATTTTTAT [CACACA_site308] | 8.71 ± 0.52 |
| ATATATTTTTTTTATACATGCAATGCATTTACGTTG [TGCATGCA_site565] | 9.02 ± 0.47 |
| TTTTTTATATATTAGGAATTTATAAAATTAGAAGGT [GTGCAC_negctrl_site617] | 8.5 ± 0.33 |
| ATATATATATATATATGTACATAATATATTATATAT [XGTACX_site924] | 9.26 ± 0.14 |
| TTATTATATACAAAATGTACACAGAATAATTTGAAT [XGTACX_site2314] | 8.7 ± 0.41 |
| TTTTTTTTTTTTTTGGTGCAGTTCACATATTATATA [GTGCAC_site9996] | 8.59 ± 0.42 |
| TTTTGAATATATTAAATAAATTAAAAATCTACAAAC [GTGCAC_negctrl_site622] | 8.28 ± 0.35 |
| AGATCATAATATTATACACACATTATATATCTGTAA [CACACA_site4925] | 9.14 ± 0.26 |
